# Several values for one entry are separate records, joined by “and”; a condition that tells them apart may be missing. Equal entries are not always repeated. Inconclusive results, whose numbers are uncertain, are shown with a selection of clear calls. Where the call is inconclusive, the potency comes from a doubtful curve fit. Activity calls are given as the source filed them. Calls come from the whole dose curve; as a rule, active = well fitted curve in the direction sought with a large enough effect; inconclusive = small, poorly fitted or top-dose-only effect, or another doubt; inactive = no such curve, though single readings can be large; an effect the other way counts as inactive or inconclusive.
# Assays:
# [1] = Viability qHTS for spleen associated tyrosine kinase inhibitor (SYKi) drug resistant MV4-11 cells (AID 1963824); note: nearly all actives have a fitted effect of over 35% in size
# Method in brief: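 SYK inhibitor-resistant MV4-11 AML cells, 500 per well, added to predispensed compounds and incubated 72 hr at 37 C, 5% CO2. Viability measured by CellTiter-Glo luminescence after 10 min at room temperature.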
# [2] = Quantitative highthroughput screen to assess conditional lethalithy of NOMO1 cells grown in Human Plasma-Like Medium with dialyzed fetal bovine serum (HPLM+ds) (AID 1963878); conditions: NOMO1 AML cells in HPLM+ds, CellTiter-Glo viability, 48 h; viability: at 45.8 µM (top of the series); note: nearly all actives have a fitted effect of over 35% in size;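 for Viability: 100% = DMSO wells and 0% = empty wells on each plate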
# Method in brief: (§1)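 Each medium arm—HPLM with 10% dialyzed FBS, or RPMI1640 with 5 mM glucose and 10% untreated or dialyzed FBS—was screened against an 11-point, 3-fold compound titration for 48 h at 37 °C, with CellTiter-Glo luminescence as endpoint.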
# [3] = Quantitative highthroughput screen to assess conditional lethalithy of P12 Ichikawa cells grown in RPMI1640 with dialyzed fetal bovine serum (RPMI+ds) (AID 1963880); conditions: Potency: P12-Ichikawa viability; note: nearly all actives have a fitted effect of over 35% in size;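 for Viability: 100% = DMSO wells and 0% = empty wells on each plate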
# Method in brief: as §1
# [4] = Quantitative highthroughput screen to assess conditional lethalithy of P12 Ichikawa cells grown in RPMI1640 with untreated serum (RPMI+s) (AID 1963881); conditions: Potency: viability; note: nearly all actives have a fitted effect of over 35% in size;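 for Viability: 100% = DMSO wells and 0% = empty wells without cells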
# Method in brief: as §1
# [5] = Quantitative highthroughput screen to assess conditional lethalithy of SEM cells grown in RPMI1640 with dialyzed fetal bovine serum (RPMI+ds) (AID 1963884); conditions: SEM B-ALL cells, RPMI+dialyzed FBS, CellTiter-Glo viability, 48 h; viability: at 45.8 µM (top of the series); note: nearly all actives have a fitted effect of over 35% in size;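 for Viability: 100% = DMSO control wells and 0% = empty wells without cells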
# Method in brief: as §1
# [6] = Quantitative highthroughput screen to assess conditional lethalithy of P12 Ichikawa cells grown in Human Plasma-Like Medium with dialyzed fetal bovine serum (HPLM+ds) (AID 1963879); conditions: Potency: viability; note: nearly all actives have a fitted effect of over 35% in size
# Method in brief: as §1
# [7] = Quantitative highthroughput screen to assess conditional lethalithy of SEM cells grown in RPMI1640 with unreated serum (RPMI+s) (AID 1963883); conditions: SEM B-ALL cells, CellTiter-Glo viability, 48 h; viability: at 45.8 µM (top of the series); note: nearly all actives have a fitted effect of over 35% in size;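 for Viability: 100% = DMSO wells and 0% = empty wells without cells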
# Method in brief: as §1
# [8] = Quantitative highthroughput screen to assess conditional lethalithy of SEM cells grown in Human Plasma-Like Medium with dialyzed fetal bovine serum (HPLM+ds) (AID 1963882); note: nearly all actives have a fitted effect of over 35% in size
# Method in brief: as §1
# [9] = Cellular viability qHTS for adrenocortical cancer (ACC) cell line SW-13 (AID 1963989); conditions: SW-13 ACC cells viability, CellTiter-Glo, 48 h; activity (max response): stronger effect = lower value; note: nearly all actives have a fitted effect of over 65% in size;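 for activity (max response): cells grown in serum-free medium with ITS supplement; % is set by controls: 0 for no effect and ±100 for the full control effect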
# Method in brief: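 Luminescent ATP read-out (CellTiter-Glo, 20 min at room temperature) measured metabolically competent SW-13 cells after 48 h compound treatment. Final concentrations spanned up to 46 uM; bortezomib served as positive control.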
# [10] = Cellular viability qHTS for adrenocortical cancer (ACC) cell line NCI-H295R (AID 1963990); conditions: CellTiter-Glo ATP luminescence, 48 h; activity change, negative = viability loss: at 46.1 µM (top of the series); note: nearly all actives have a fitted effect of over 60% in size;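 for activity change, negative = viability loss: 0% = DMSO only wells and -100% = full killing with cytotoxic reference compound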
# Method in brief: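 IC50 and maximal efficacy derive from four-parameter logistic modelling of titration curves, with reads scaled between DMSO-only wells (0%) and doxorubicin hydrochloride (100% inhibition). Compounds spanned up to 46 uM over 48 h.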
# Potency is the fitted concentration of half-maximal effect; tags give direction and shape of the fitted curve.
smiles,measurement,setting,value
Cn1cnc(=N)c2[nH]cnc21,Potency,[1],inactive
same,Potency,[2],active: 4.69 µM
same,Potency,[3],active: 7.43 µM
same,Potency,[4],active: 7.43 µM
same,Potency,[5],active: 3.32 µM
CC(=O)O[C@H]1C[C@@H]2CC[C@H]3[C@H]4C[C@H]([N+]5(C)CCCCC5)[C@@H](OC(C)=O)[C@@]4(C)CC[C@@H]3[C@@]2(C)C[C@H]1[N+]1(C)CCCCC1,Potency,[1],"inconclusive: 7.42 µM [cytotoxic, single point]"
same,Potency,[2],inactive
same,Potency,[6],inactive
same,Potency,[7],inactive
C[C@H]1Oc2cc(cnc2N)-c2c(nn(C)c2C#N)CN(C)C(=O)c2ccc(F)cc21,Potency,[1],"inconclusive: 29.1 µM [cytotoxic, single point] and inconclusive: 10.5 µM [cytotoxic, full curve, poor fit]"
same,Potency,[2],inactive
same,Potency,[3],inactive
same,Potency,[8],inactive
same,activity (max response),[9],inactive: -27%
NCc1ccc(OCCCc2sc(-c3ccc4c(c3)/C(=N/Nc3nc5ccccc5s3)CCC4)nc2C(=O)O)cc1,Potency,[1],"inconclusive: 2.91 µM [cytotoxic, partial curve]"
same,Potency,[2],inactive
same,Potency,[6],active: 0.0047 µM
same,Potency,[8],"inconclusive: 0.0263 µM [cytotoxic, full curve]"
same,activity (max response),[9],inactive: -8.27%
CC(C)NCC(O)c1ccc(NS(C)(=O)=O)cc1 (stereo unspecified),Potency,[1],inactive
same,Potency,[6],inactive
same,Potency,[3],inactive
CN1c2cc(O)c(N=NC(N)=O)cc2CC1S(=O)(=O)O (stereo unspecified),Potency,[1],inactive
same,Potency,[8],inactive
c1cc(OCCN2CCCCC2)cc(-c2n[nH]c3ccc(-c4ncn[nH]4)cc23)c1,Potency,[1],active: 1.16 µM
same,Potency,[6],inactive
same,Potency,[4],inactive
same,Potency,[8],"inconclusive: 0.264 µM [cytotoxic, full curve, poor fit]"
same,Potency,[5],"inconclusive: 14.8 µM [cytotoxic, partial curve, poor fit]"
same,Potency,[9],"inconclusive: 28.2 µM [cytotoxic, single point]"
Cc1nc2c([nH]1)CCN(C(=O)c1ccc(NC(=O)c3ccccc3-c3ccccc3)cc1)c1ccccc1-2,Potency,[1],active: 13.2 µM
same,Potency,[2],inactive
same,Potency,[7],inactive
same,Potency,[5],inactive
Oc1ccc(C2CNCCc3c2cc(O)c(O)c3Cl)cc1 (stereo unspecified),Potency,[1],"inconclusive: 33.5 µM [cytotoxic, single point] and inconclusive: 33.2 µM [cytotoxic, single point]"
same,Potency,[8],inactive
Cn1cc(CNCC2CCN(c3ncc(C(=O)NO)cn3)CC2)c2ccccc21,Potency,[1],active: 0.0166 µM
same,Potency,[2],active: 0.296 µM
same,Potency,[3],active: 0.372 µM
same,Potency,[8],active: 0.132 µM
same,Potency,[5],active: 0.132 µM
CN1C[C@H]2c3ccccc3Oc3ccc(Cl)cc3[C@@H]2C1,Potency,[1],"inconclusive: 26.6 µM [cytotoxic, single point]"
same,Potency,[2],inactive
same,Potency,[3],inactive
same,Potency,[8],"inconclusive: 29.6 µM [cytotoxic, single point]"
same,Potency,[7],active: 26.4 µM
same,Potency,[5],active: 23.5 µM
same,Potency,[10],"inconclusive: 25.9 µM [cytotoxic, single point]"
Nc1ccc(C(=O)c2cc3c(ccc4ccccc43)[nH]2)cc1,Potency,[1],active: 4.81 µM
same,Potency,[2],"inconclusive: 9.35 µM [cytotoxic, full curve]"
same,Potency,[3],active: 5.9 µM
same,Potency,[4],active: 3.32 µM
same,Potency,[5],active: 2.96 µM
S=P(N1CC1)(N1CC1)N1CC1,Potency,[1],"inconclusive: 12.8 µM [cytotoxic, partial curve, poor fit]"
same,Potency,[2],"inconclusive: 37.2 µM [cytotoxic, single point]"
same,Potency,[8],"inconclusive: 33.2 µM [cytotoxic, single point]"
same,Potency,[7],"inconclusive: 23.5 µM [cytotoxic, partial curve]"
same,Potency,[5],"inconclusive: 18.7 µM [cytotoxic, partial curve]"
same,Potency,[9],"inconclusive: 44.7 µM [cytotoxic, single point]"
NC(=O)OCC(COC(N)=O)c1ccccc1,Potency,[1],inactive
same,Potency,[2],inactive
same,Potency,[4],inactive
same,Potency,[7],inactive
same,Potency,[5],inactive
NC(=O)c1cccc(-c2cccc(OC(=O)NC3CCCCC3)c2)c1,Potency,[1],"inconclusive: 20.9 µM [cytotoxic, single point]"
same,Potency,[2],inactive
same,Potency,[3],"inconclusive: 0.418 µM [cytotoxic, full curve]"
same,Potency,[4],"inconclusive: 0.59 µM [cytotoxic, full curve]"
same,Potency,[8],inactive
same,Potency,[7],"inconclusive: 0.743 µM [cytotoxic, full curve, poor fit]"
same,Potency,[5],"inconclusive: 0.526 µM [cytotoxic, full curve, poor fit]"
COC(=O)Nc1nc2ccc(C(=O)c3ccc(F)cc3)cc2[nH]1,Potency,[1],"inconclusive: 651 nM [cytotoxic, full curve] and inconclusive: 372 nM [cytotoxic, full curve, poor fit]"
same,Potency,[2],"inconclusive: 0.935 µM [cytotoxic, full curve]"
same,Potency,[6],"inconclusive: 0.662 µM [cytotoxic, full curve]"
same,Potency,[4],"inconclusive: 0.743 µM [cytotoxic, full curve, poor fit]"
same,Potency,[7],"inconclusive: 0.662 µM [cytotoxic, full curve]"
same,Potency,[5],"inconclusive: 0.662 µM [cytotoxic, full curve]"
CCCCNc1cc(C(=O)O)cc(S(N)(=O)=O)c1Oc1ccccc1,Potency,[1],inactive
same,Potency,[2],inactive
same,Potency,[3],inactive
same,Potency,[8],inactive
same,Potency,[5],inactive
Cc1ccc(F)c(NC(=O)Nc2ccc(-c3cccc4[nH]nc(N)c34)cc2)c1,Potency,[1],active: 0.0231 µM
same,Potency,[2],inactive
same,Potency,[6],"inconclusive: 37.2 µM [cytotoxic, single point]"
same,Potency,[8],"inconclusive: 1.48 µM [cytotoxic, partial curve, poor fit]"
same,Potency,[5],active: 5.9 µM
C[C@](Cc1c[nH]c2ccccc12)(NC(=O)OC1C2CC3CC(C2)CC1C3)C(=O)NC[C@H](NC(=O)CCC(=O)O)c1ccccc1 (stereo partly specified),Potency,[1],"inconclusive: 20.9 µM [cytotoxic, partial curve]"
same,Potency,[2],inactive
same,Potency,[4],inactive
same,Potency,[5],"inconclusive: 3.32 µM [rising, partial curve, poor fit]"
CCOc1cc(N)c(Cl)cc1C(=O)NCC1CN(Cc2ccc(F)cc2)CCO1 (stereo unspecified),Potency,[1],"inconclusive: 29.9 µM [cytotoxic, single point] and inconclusive: 23.5 µM [cytotoxic, partial curve]"
same,Potency,[2],inactive
same,Potency,[8],inactive
same,activity (max response),[9],inactive: -20% and inactive: -11.9%
same,Potency,[10],inactive
NS(=O)(=O)c1cc(Cl)c(Cl)c(S(N)(=O)=O)c1,Potency,[1],inactive
same,Potency,[2],inactive
same,Potency,[8],"inconclusive: 11.8 µM [cytotoxic, single point]"
same,Potency,[7],"inconclusive: 11.8 µM [cytotoxic, single point]"
same,Potency,[5],"inconclusive: 11.8 µM [cytotoxic, single point]"
CCc1ccc(CCOc2ccc(CC3SC(=O)NC3=O)cc2)nc1 (stereo unspecified),Potency,[1],"inconclusive: 9.34 µM [cytotoxic, full curve]"
same,Potency,[2],inactive
same,Potency,[3],inactive
same,Potency,[5],inactive
CC(C)NCC(O)COc1ccc(COCCOC(C)C)cc1 (stereo unspecified),Potency,[1],inactive
same,Potency,[6],inactive
same,Potency,[8],inactive
same,Potency,[5],inactive
same,Potency,[10],inactive
O=C(CCN1CCN(C(=O)OCc2cc(Cl)cc(Cl)c2)CC1)c1ccc2[nH]c(=O)oc2c1,Potency,[1],"inconclusive: 29.1 µM [cytotoxic, single point]"
same,Potency,[6],"inconclusive: 37.2 µM [cytotoxic, partial curve, poor fit]"
same,Potency,[3],"inconclusive: 37.2 µM [cytotoxic, single point]"
same,Potency,[4],"inconclusive: 26.4 µM [cytotoxic, single point]"
same,Potency,[8],"inconclusive: 0.0013 µM [rising, full curve, poor fit]"
same,Potency,[7],"inconclusive: 0.0013 µM [rising, full curve]"
same,Potency,[5],"inconclusive: 33.2 µM [cytotoxic, single point]"
same,activity (max response),[9],inactive: -15.7%
same,Potency,[10],"inconclusive: 31.6 µM [cytotoxic, single point]"
CCCCCCCc1ccc(CCc2cccc(O)c2C(=O)O)cc1,Potency,[1],"inconclusive: 20.9 µM [cytotoxic, partial curve]"
same,Potency,[2],inactive
same,Potency,[8],"inconclusive: 0.0015 µM [rising, full curve]"
same,Potency,[7],"inconclusive: 0.0017 µM [rising, full curve]"
same,Potency,[5],"inconclusive: 0.0012 µM [rising, full curve, poor fit]"
same,Potency,[9],"inconclusive: 28.2 µM [cytotoxic, single point]"
same,Potency,[10],"inconclusive: 31.6 µM [cytotoxic, single point]"
C1Cc2[nH]nc(-c3nn[nH]n3)c2C1,Potency,[1],inactive
same,Potency,[2],inactive
same,Potency,[6],inactive
same,Potency,[3],inactive
same,Potency,[5],inactive
Cc1cccc(Nc2nc(-c3ccncc3)cs2)c1,Potency,[1],"inconclusive: 8.2 µM [cytotoxic, partial curve] and inconclusive: 11.8 µM [cytotoxic, partial curve]"
same,Potency,[3],active: 18.7 µM
same,Potency,[4],"inconclusive: 26.4 µM [cytotoxic, partial curve, poor fit]"
same,Potency,[8],"inconclusive: 33.2 µM [cytotoxic, single point]"
same,Potency,[7],"inconclusive: 29.6 µM [cytotoxic, single point]"
same,Potency,[5],"inconclusive: 18.7 µM [cytotoxic, partial curve, poor fit]"
same,Potency,[9],"inconclusive: 17.8 µM [cytotoxic, partial curve]"
same,Potency,[10],active: 25.1 µM
CCCOc1ccc(C(=O)OCCN(CC)CC)cc1N,Potency,[1],inactive
same,Potency,[6],inactive
same,activity (max response),[9],inactive: -2.3% and inactive: -19.7%
C[C@H]1[C@@H](OC(=O)CCC(=O)O)O[C@@H]2O[C@@]3(C)CC[C@@H]4[C@H](C)CC[C@@H]1[C@@]24OO3,Potency,[1],active: 1.16 µM
same,Potency,[6],active: 11.8 µM
same,Potency,[5],active: 4.18 µM
same,Potency,[9],"inconclusive: 14.1 µM [cytotoxic, partial curve]"

# From PubChem BioAssay (NCATS)
